In all, about 110,000 compounds were measured (“z-score”: median about -0.1, highest 2% from about 2 on). The list shows a part of the results. The source made the active and inactive calls.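 The calls were made as follows: active = z-score in the third read window above 3 or below -3; inactive = the rest.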

The assay concerns the target Metabotropic glutamate receptor 8 (Rattus norvegicus) (UniProt P70579). The experiment in a line: rat mGluR8 modulators via GIRK flux, primary screen, cell-based, thallium flux, HTS (AID 488969). The following applies: HEK293 rat mGluR8, GIRK (G protein-gated inwardly rectifying potassium channel) thallium flux, FluoZin2; at 10 µM; stronger effect = higher value; submaximal glutamate (EC20) added with thallium.
Sequence of UniProt P70579 (P70579 whole entry, looked up): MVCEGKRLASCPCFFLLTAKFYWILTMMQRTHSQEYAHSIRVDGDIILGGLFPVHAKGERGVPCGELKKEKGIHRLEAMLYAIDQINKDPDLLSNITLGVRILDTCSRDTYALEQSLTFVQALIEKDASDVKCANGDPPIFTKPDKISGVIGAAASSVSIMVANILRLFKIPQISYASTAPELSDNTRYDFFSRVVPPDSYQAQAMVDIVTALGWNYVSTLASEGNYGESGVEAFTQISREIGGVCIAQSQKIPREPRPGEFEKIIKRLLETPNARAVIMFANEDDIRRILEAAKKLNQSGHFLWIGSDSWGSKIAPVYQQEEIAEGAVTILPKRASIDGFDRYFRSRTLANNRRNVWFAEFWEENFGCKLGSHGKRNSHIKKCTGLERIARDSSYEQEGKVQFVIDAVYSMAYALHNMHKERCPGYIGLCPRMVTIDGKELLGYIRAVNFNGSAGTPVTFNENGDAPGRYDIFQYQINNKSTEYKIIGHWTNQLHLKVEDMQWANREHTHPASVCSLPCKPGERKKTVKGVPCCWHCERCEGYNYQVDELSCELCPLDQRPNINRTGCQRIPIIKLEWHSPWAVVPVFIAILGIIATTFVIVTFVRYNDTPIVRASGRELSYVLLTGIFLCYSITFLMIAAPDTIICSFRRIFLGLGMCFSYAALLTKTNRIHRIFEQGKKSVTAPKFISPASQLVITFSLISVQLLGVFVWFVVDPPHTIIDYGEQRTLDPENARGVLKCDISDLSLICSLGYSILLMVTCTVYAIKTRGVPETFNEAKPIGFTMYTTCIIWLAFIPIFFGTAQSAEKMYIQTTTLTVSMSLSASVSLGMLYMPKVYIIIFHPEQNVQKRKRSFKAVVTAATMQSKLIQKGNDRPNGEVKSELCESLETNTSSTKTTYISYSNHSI
On to `CCCCOC(=O)c1ccc(S(N)(=O)=O)o1`, for which the z-score was -0.13.
For the compound `O=C(Nc1nccs1)c1ccc(Cl)s1`, the z-score worked out at 0.227.
In the case of `COc1ccc(OCCOCCN2CCOCC2)cc1`, the z-score is 0.0364.
Consider `Cc1ccsc1-c1nc(CSCC(=O)NCc2ccc3c(c2)OCO3)c(C)o1`, for which the z-score is -0.802.
With `CCc1nn(-c2ccccc2)c2c1-c1cc(OC)c(OC)cc1C1(N2)C(=O)Nc2ccccc21` (configuration not stated), the z-score was -2.07.
With `CCOC(=O)N1CCN(C(c2ccccc2)c2sc3nc(C)nn3c2O)CC1` (configuration not stated) the figure was -0.0552.
To `COc1cccc(CNCc2ccc(SC)cc2)c1OC` belongs -0.19.
`CC1=C(C(N)=O)C(c2cccc(O)c2)n2nc(CCCO)nc2N1` (configuration not stated): the z-score was 0.0986.
As for `Cc1ccc(C(=O)c2coc3ccc(O)c(Cl)c23)cc1`, the z-score was -0.251.
`CCOC(=O)/C(=N\Nc1ccccc1)c1csc(Nc2ccc(C)cc2)n1`: the z-score amounted to 0.099.
To `Cn1c(SCC(=O)c2ccccc2)nnc1-c1ccco1` belongs 0.0167.
`CCc1ccc2oc(-c3cccc(NC(=O)c4cccnc4)c3)nc2c1` registered a z-score of 0.415.
With `Cc1nn(Cc2ccc(Cl)cc2)c(C)c1NC(=O)CSc1nc2c(c(C(F)(F)F)n1)CCc1ccccc1-2` the figure was -0.113.
`CCOC(=O)c1[nH]c(C)c(C(=O)N(CC)CC)c1C` yielded a z-score of 0.0589.
With `Cc1cccc(-c2nsc(SCC(=O)Nc3ccc4c(c3)OCO4)n2)c1` the figure was -0.13.
The compound `COc1cc(NC(=O)Cc2cccs2)ccc1-n1cnnn1` had a z-score of 0.734.
To `O=C(CC(O)(C(F)(F)F)C(F)(F)F)Nc1ccc(Cl)c(Cl)c1` belongs active: 6.91; to `COc1cc(NC(=S)NC(=O)c2cc(C)cc(C)c2)ccc1NC(=O)c1cccs1`, 0.589; to `COc1cc2c(cc1OC)C(C)N(C(=O)c1cc3ccccc3o1)CC2` (configuration not stated), -0.858.
Regarding `CC(=O)c1c(C)[nH]c(C(=O)COC(=O)CN(C)S(=O)(=O)c2ccc(Cl)cc2)c1C`, the z-score is -1.07.
As for `Cc1ccc(NC(=O)/C(=C/c2ccco2)c2ccccc2)c(C)c1`, the z-score was -0.364.
With `O=C(c1ccccc1C(=O)N1CCN(c2ccccc2)CC1)N1CCN(c2ccccc2)CC1` the figure was 0.0347; with `COC(=O)c1c2c(nc3ccccc13)CCC2`, -0.063; with `CC1=C2C(=O)OC(c3ccoc3)C2(C)CCC1` (configuration not stated), -0.644.
On to `Cc1cc(Nc2c(C)n(C)n(-c3ccccc3)c2=O)c2ccccc2n1`, for which the z-score was -0.208.
To `O=C(NCCNC1CCN(Cc2ccccc2)CC1)c1cccs1` belongs -0.614.
With `CCCCn1c(SCC2CCCO2)nc2cc(S(N)(=O)=O)ccc21` (configuration not stated), the z-score was -0.252.
`COCCCNC(=O)C12CCC(C)(C(=O)C1)C2(C)C` (configuration not stated) returned a z-score of 0.191.
As for `CCCc1cc(=O)oc2cc(C)c3c(C)coc3c12`, the z-score was -0.386.
Regarding `COc1ccc(OCCSc2n[nH]c(N)n2)cc1`, the z-score came to 0.104.
With `C=CCSc1nnc(-c2cc3c(-c4ccccc4)nn(C)c3s2)n1C` the figure was 0.199.
To `Cc1ccc2oc3nc(C)c(C(=O)Nc4cccc(C(F)(F)F)c4)cc3c(=O)c2c1` belongs -0.0551; to `CCC(C(=O)Nc1nccs1)(C(F)(F)F)C(F)(F)F`, 0.164; to `Cc1ccc(-c2csc(NC(=O)CSc3nc4ccccc4o3)n2)cc1`, -0.324.
`O=C(CSc1nc2ccccc2c(=O)n1-c1ccccc1)N1CCc2ccccc21`: the z-score is -0.051.
With `CCOC(=O)N1CCN(C(=O)C2CCN(S(C)(=O)=O)CC2)CC1` the figure was 0.0186; with `CC1CCN(C(=O)c2cc(-c3ccc(Cl)c(Cl)c3)on2)CC1`, -0.111; with `COC(=O)[C@H](C(C)C)n1c(C)c(C(C)=O)c(C(C)=O)c1C`, 0.17.
As for `O=c1cc(CSc2nnnn2-c2ccccc2)nc2nc[nH]n12`, the z-score is -0.264.
With `Oc1ccccc1Cn1c(-c2ccccc2O)nc2ccccc21` the figure was 0.219.
For `CN1C(=O)C(=C2CCCCCC2)SC1=S`, the z-score is -0.294.
Regarding `COc1ccc(C2C(C#N)=C(N)Oc3cc4c(cc32)OCO4)cc1` (configuration not stated), the z-score was -0.0829.
As to `COc1ccc2oc(C(=O)OCC(=O)NC(=O)NC(C)C)c(C)c2c1`, the z-score is 0.0484.
`COc1ccc(CCn2c(=N)c(C(=O)NCc3ccco3)cc3c(=O)n4ccccc4nc32)cc1`: the z-score stood at 0.369.
To `CC1CCN(C(=O)c2ccc(C(=O)N3CCC(C)CC3)cc2)CC1` belongs -0.275.
Take `CCN(CC(O)COc1ccc(OCC(O)CN(CC)C2CCCCC2)cc1)C1CCCCC1` (configuration not stated): the z-score worked out at 2.32.
In the case of `COc1cc(/C=N/n2cnnc2)ccc1OCc1ccc(C)cc1`, the z-score was -0.758.
The compound `Cc1ccccc1NC(=S)NC(=O)CCc1ccccc1` registered a z-score of 2.94.
On to `Cc1cccn2c(=O)c3cc(C(=O)NCC4CCCO4)n(C)c3nc12` (configuration not stated), for which the z-score was -0.221.
With `CCN(CC)c1ncnc2c1cnn2C` the figure was -0.228; with `CC(C)C(C(=O)O)N1C(=O)/C(=C/c2cccn2C)SC1=S` (configuration not stated), -0.593.
To `COc1cccc(NC(=O)CSc2ncnc3c2cnn3Cc2ccccc2)c1` belongs -0.23.
With `Cc1ccccc1OCC(=O)N1N=C(c2cccnc2)CC1(O)C(F)(F)F` (configuration not stated) the figure was -0.147.
In the case of `Cc1ccc(C(=O)CCC(=O)Nc2cccnc2)cc1C`, the z-score is -0.25.
For the compound `Cc1cccc(OCCC(=O)NCC(=O)Nc2c(C)cccc2C)c1`, the z-score is -0.104.
Regarding `COc1ccc(C(=O)c2sc3nc(-c4ccccc4)ccc3c2N)cc1`, the z-score was -0.123.
To `COCCN(C(=O)Nc1ccc(OC)cc1OC)C1CCN(C(C)=O)CC1` belongs -0.12; to `O=C(CC(c1ccccc1)c1cc(Cl)ccc1O)N1CCOCC1` (configuration not stated), -0.151.
With `Cc1nc2ncnn2c(C)c1CCC(=O)NC(C)c1ccc2c(c1)OCCO2` (configuration not stated) the figure was -0.206; with `Cc1cc(NS(=O)(=O)c2ccc(NC(=O)CSc3nnc(-c4ccco4)n3Cc3ccco3)cc2)nc(C)n1`, -0.115; with `Cn1nc(Oc2nc(N3CCOCC3)nc(N3CCOCC3)n2)ccc1=O`, 0.165.
To `CCOC(=O)c1ccccc1NS(=O)(=O)c1ccc(OCC)cc1` belongs -0.255.
As to `CCOc1ccc(S(=O)(=O)N2CCCCCC2)cc1`, the z-score is -0.437.
For `CCCCC(O)(CCCC)C(=O)NN(C(=O)OCC)c1ccccc1`, the z-score is -0.429.
The compound `COCCOc1ccc(C(F)(F)F)cc1NC(=O)c1ccc(C(F)(F)F)cc1` had a z-score of 0.133.
Turning to `COc1ccc2c(Cl)c(C(=O)N/N=C/c3ccc4c(c3)OCO4)sc2c1`, the z-score was determined as 0.0579.
To `Cc1cc(/C=C(\C#N)C(=O)Nc2ccc(F)cc2)c(C)n1-c1ccc(N2CCOCC2)c([N+](=O)[O-])c1` belongs 0.0895; to `COc1ccc(C(=O)COC(=O)CNS(=O)(=O)c2ccc(C)cc2)cc1`, -0.781; to `CCN(CC)S(=O)(=O)c1ccc(NC(=O)CSc2cccc[n+]2[O-])cc1`, -0.324.
To `Cc1cc(NC(=O)CSc2nc(C(C)C)nc3c2c(=O)n(C)c(=O)n3C)no1` belongs 0.195.
With `Cc1ccc(S(=O)(=O)N(C)CC(=O)Nc2cccc3c2CCCC3)cc1` the figure was -0.226; with `O=C(CSc1nnc(CNC(=O)c2cccs2)o1)NC1CCCCC1`, -0.338; with `CCCCNC(=O)OC(C)CNC(=O)OC` (configuration not stated), -0.213.
Consider `O=C(NCCN1CCCC1)C1CC(=O)N(C2CCCCC2)C1` (configuration not stated), for which the z-score was -1.26.
To `COc1ccc(C)cc1S(=O)(=O)Nc1ccccc1` belongs -0.475; to `N#Cc1c(Cl)c(Cl)c2nnc(-c3ccc(Br)cc3)n2c1Cl`, -0.505.
To `Cc1c(/C=N/n2cnnc2)c2ccccc2n1C` belongs -1.56; to `CCN1C(=O)/C(=C/N(C)c2ccccc2)OC1=S`, 0.307; to `Cc1ccc(S(=O)(=O)Nc2nc3ccccc3nc2N2CCN(c3ccccc3F)CC2)cc1`, -0.256.
To `Cc1ccc(-c2c(C)n([O-])c3c([n+]2=O)CCCC3)o1` belongs 0.171.
For `O=C(CCS(=O)(=O)c1cccc2nsnc12)NCc1ccccc1`, the z-score was -0.0477.
To `O=c1cc(-c2ccc(Cl)cc2)[nH][nH]1` belongs 0.375; to `O=C(CCCC(=O)OCC(Cl)=C(Cl)Cl)Nc1ccc(F)cc1`, 0.53; to `COc1cccc(NC(=O)CSc2nnc(-c3cc(-c4ccccn4)nc4ccccc34)o2)c1`, 0.909.
In the case of `COC(=O)Cc1csc(Nc2ccccc2)n1`, the z-score was -0.467.
Take `COc1ccc(NS(=O)(=O)c2ccc(N3C(=O)CCC3=O)cc2)cc1`: the z-score came to 0.339.
With `Cc1ccc(SCCC(=O)Nc2c(C)n(C)n(-c3ccccc3)c2=O)cc1` the figure was 0.234; with `O=C(CSc1nnc(-c2cccs2)o1)Nc1cccc(S(=O)(=O)N2CCCCC2)c1`, -0.19.
`CC(/C=C1\SC(=O)N(CC(=O)Nc2cccc(O)c2)C1=O)=C\c1ccccc1`: the z-score is -0.157.
`Fc1cccc(/C=N/NC(=S)Nc2ccccc2Cl)c1`: the z-score was active: 11.2.
Consider `Cc1ccc(Oc2ncc(-c3ccc(Cl)cc3)cn2)cc1`, for which the z-score is -0.0734.
Regarding `Cn1c(N/N=C/c2cccs2)cc(=O)n(C)c1=O`, the z-score worked out at 0.96.
With `Cc1cccc(NC(=S)N(CCN(C)C)Cc2cc3cccc(C)c3[nH]c2=O)c1` the figure was 0.0447; with `Cc1ccc(-c2csc3ncnc(N4CCN(C(=O)c5ccccc5)CC4)c23)cc1`, active: -3.18.
In the case of `Cc1ccc(C(=O)Nc2ccc(CC(=O)O)cc2)o1`, the z-score was -0.0825.
With `CC(=O)NCCCc1c[nH]c2ccc(Cl)cc12` the figure was 0.497; with `Cc1ccc(S(=O)(=O)Oc2ccccc2/C=N/NC(=O)c2c(Cl)cnn2C)cc1`, -0.314.
As to `CC(C)Cn1c(C(C)C)nc([N+](=O)[O-])c1S(=O)(=O)c1ccc(F)cc1`, the z-score was -0.276.
To `COc1ccc(C(=O)NC(=S)Nc2cccc(NC(=O)c3ccco3)c2)cc1[N+](=O)[O-]` belongs 0.424; to `Cc1cc(C)nc(Nc2nc3ccccc3[nH]2)n1`, -0.0598; to `Cc1cc(=O)oc2cc(Oc3ncccn3)ccc12`, 0.707.
On to `O=[N+]([O-])c1ccc(S(=O)(=O)CC2CSc3nc4ccccc4n32)cc1` (configuration not stated), for which the z-score is -0.185.
With `CN(c1ccc([N+](=O)[O-])cc1/C=N/NC(=O)COc1ccccc1)C1CCCCC1` the figure was -0.398; with `Cn1c(=O)c2c([nH]c(=O)n2C)n(C)c1=O`, -0.146; with `Cn1ccnc1SCC(=O)Nc1cccc2ccccc12`, 0.56.
To `CCOC(=O)Cc1csc(NC(=O)CSc2nc3sc(C(=O)O)c(C)c3c(=O)[nH]2)n1` belongs 0.0555.
To `O=C(Cc1ncn[nH]1)NCCc1ccccc1` belongs -0.0683; to `Cc1ccc(C2NS(=O)(=O)N=C2N)cc1` (configuration not stated), 0.0154.
On to `O=C(CSc1ncn(-c2ccccc2)n1)c1cccs1`, for which the z-score was -0.233.
To `Cn1c(=O)n(C)c2cc(/C=N/NC(=O)c3cccc(Br)c3)ccc21` belongs -0.0375.
As to `CC(=O)c1cc(-c2ccccc2)n(CCC(=O)NC2CCCCC2)c1C`, the z-score was -0.0404.
To `COc1ccc(CCNC(=O)CSc2nnc(CNC(=O)c3ccco3)o2)cc1OC` belongs 0.382.

For the origin of these results see PubChem BioAssay AID488969 (Vanderbilt High Throughput Screening Facility, 2010).
